Experimental data as given in PubChem BioAssay AID743279 (National Center for Advancing Translational Sciences (NCATS), 2014).
In all, about 360,000 compounds went through this assay and about 17,000 (4.7%) were called active. This list was built around the results that the source calls inconclusive (neither active nor inactive); the mix of calls is not that of the screen. Cut-off read from the data, not from the text of the source: active = activity change below about -50%; inconclusive = mostly about -30% to -49%; inactive = weaker than that.

Test: qHTS for Inhibitors of Inflammasome Signaling: IL-1-beta AlphaLISA Primary Screen
Settings: THP-1 LPS/ATP IL-1B secretion, 16 h; at 57.5 µM, stronger effect = lower value
Summary of the method: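 Secreted IL-1B measured by AlphaLISA bead assay after 16 h compound exposure of THP-1 cells; compounds (final up to 57.5 uM) added 1 h before LPS (250 ng/mL) and ATP (1.25 mM) stimulation; lower signal means less secretion.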
% is set by controls: 0 for no effect and ±100 for the full control effect.

Activity change, inactive:
CCN(CC)S(=O)(=O)c1ccc(O)c(C(=O)OCC(=O)NC2CCCC2)c1 42.4%
CC(C)Cc1ccc(S(=O)(=O)Nc2ccc3[nH]c(=O)[nH]c3c2)cc1 9.11%
COc1cc(C(O)c2nc3ccccc3s2)cc(OC)c1OC (configuration not stated) 9.35%
COc1cc(C(=O)O/N=C2\CCCc3c2ccc(OC)c3[N+](=O)[O-])cc(OC)c1OC -3.65%
NS(=O)(=O)c1ccc(CCNC(=O)CN2CCN(c3cccc(Cl)c3)CC2)cc1 24.6%
CCN(C[C@H]1N[C@@](Cc2ccccc2)(C(=O)OC)[C@H]2C(=O)N(Cc3ccccc3)C(=O)[C@@H]12)S(=O)(=O)c1ccc(C(F)(F)F)cc1 -18.4%
Cc1nnc(SCC(=O)NNC(=O)c2ccccc2)n1-c1ccccc1 0.603%
COc1ccc(/C=C2/SC(=S)N(CCCC(=O)Nc3ccccc3C(=O)O)C2=O)cc1 20%
COc1ccc(/C=N/n2cnnc2SCc2ccccc2)cc1 -19.6%
Cn1c(=O)c2c(nc(OCc3cccnc3)n2Cc2ccccc2)n(C)c1=O -9.43%
Cc1cc2cc(C=O)c(Cl)nc2cc1C -11.1%
CCOC(=O)N1CCC(N(CCCOC)C(=O)Nc2cccc(OC)c2)CC1 23%
COCCN1C(=O)N[C@@H](c2cccs2)C(C(=O)OC)=C1C 45.3%
CCOc1ccc(S(=O)(=O)N2CCC(C(=O)NCc3ccco3)CC2)cc1 -0.846%
O=C(NCc1ccccc1)c1cc(C2COCCN2C(=O)c2ccc(Cl)cc2)on1 (configuration not stated) 2.9%
CC(=O)C1=NN(c2ccc(Cl)cc2)C(c2ccc3c(c2)OCO3)N(C(C)=O)N1C (configuration not stated) -22.6%
O=S1(=O)CC(N2CCCCC2)CN1Cc1cn(Cc2ccc(F)cc2)nn1 (configuration not stated) -3.9%
O=C(Cn1c2c(sc1=O)C1c3ccccc3OCC1CS2)Nc1ccc(Cl)cc1 (configuration not stated) 18.1%
COc1ccccc1C(CNC(=O)CNC(=O)c1ccc(Cl)c(Cl)c1)N1CCCC1 (configuration not stated) -6.32%
c1ccc2c(-c3cnc4cccnn34)cncc2c1 -19.1%
Cc1sc2nc(SCC(=O)OC(C)C)n(C)c(=O)c2c1C -10.6%
CC(C)=CCc1c(-c2ccc(O)cc2O)oc2c3c(cc(O)c2c1=O)OC(C)(C)C=C3 -4.15%
CS(=O)(=O)N(CC(=O)N1CCOCC1)c1ccccc1Br -2.33%
CN1C(=O)CON=C1c1cccc2ccccc12 0%
Cc1ccc(C(c2cc(Cl)c3cccnc3c2O)N2CCN(C)CC2)cc1 (configuration not stated) 44.6%

Activity change, active:
CCOC(=O)c1c(NC(=O)CSc2nc3ccccc3[nH]2)sc2c1CC(C)(C)NC2(C)C -50.5%
CCc1ccc(NC(=O)C2CCN(S(=O)(=O)c3cccs3)CC2)cc1 -80.4%
O=C(O)c1ccc2c(=O)n3c(nc2c1)/C(=C/c1ccc(Cl)c([N+](=O)[O-])c1)CC3 -64.3%
OC1(c2cccc(C(F)(F)F)c2)CCN(c2ncnc3c2[nH]c2ccc(F)cc23)CC1 -67.7%
C#CCN(C[C@@H]1[C@@H](OC(=O)NCc2ccco2)[C@@H](OC(=O)NCc2ccco2)Cn2c(=O)ccc(=O)n21)S(=O)(=O)c1ccc(C)cc1 -109%
CCCCN(C(=O)c1cc(S(=O)(=O)N2CCCCCC2)ccc1OC)c1ccccc1 -81%
CN1CCN(C(=O)/C=C/c2ccc([N+](=O)[O-])o2)CC1 -57.8%
Cc1ccc2sc(N(CCCN(C)C)C(=O)c3ccc(S(=O)(=O)N4CCc5ccccc5C4)cc3)nc2c1C -82.4%
CN1CCN(CC(=O)N2CCn3c4c(c5cc(C6CCCCC6)ccc53)CCCC42)CC1 (configuration not stated) -121%
CCCC(=O)N1CCN(c2ccc(NC(=O)c3cc4ccccc4o3)cc2)CC1 -55.8%
OCCCCNCc1ccc(OCc2ccc(Cl)cc2Cl)cc1 -101%

Activity change, inconclusive:
CCCC(=O)Nc1cc(Cl)ccc1C -39.7%
COc1ccc(-c2nn(-c3ccccc3)cc2C(=O)NCCCn2ccnc2)cc1 -36.9%
O=C(NCc1cccc(Cl)c1)c1ccc(CS(=O)Cc2ccccc2Cl)o1 (configuration not stated) -43.6%
Oc1c(C(c2cccs2)N2CCN(c3cccc(Cl)c3)CC2)sc2ncnn12 (configuration not stated) -41.7%
COc1ccc(NC(=O)C2(C)Cc3c(-c4ccc(NC(C)=O)cc4)ccnc3O2)cc1 (configuration not stated) -35.1%
Clc1ccc2nc(CSc3nc4ccccc4o3)cn2c1 -39.1%
COc1ccc(C2C(C#N)=C(N)Oc3n[nH]c(C)c32)cc1CN1CCN(c2ccc(F)cc2)CC1 (configuration not stated) -34%
CCS(=O)(=O)n1nc(-c2ccccc2)nc1SCc1ccccc1 -31.8%
COc1ccc(-n2cc(-c3ccccc3)[n+]3c2CCCCC3)cc1 -46.4%
COc1ccc(CN2CCC(CO)(Cc3ccccc3)CC2)cc1Cn1cccn1 -46.4%
CCCCN(C(C)=O)c1c(N)n(CCC)c(=O)n(CC(=O)Nc2cc(Cl)cc(Cl)c2)c1=O -40.6%
COc1ccc(C2c3c(-c4ccccc4O)n[nH]c3C(=O)N2Cc2ccco2)cc1OC (configuration not stated) -41.4%
COc1cc(CNC2CCCC2)cc(Cl)c1OCc1ccc(F)cc1 -37%
N=c1c(C(=O)NCC2CCCO2)cc2c(=O)n3ccccc3nc2n1C1CCCC1 (configuration not stated) -35.4%
CN(C)/C=C/C(=O)c1ccc2noc(-c3ccc(F)cc3)c2c1 -32.1%
Cc1cc(C)c(S(=O)(=O)N(C)c2ccccc2)c(C)c1 -34.2%
CC(OC(=O)c1cccc(-n2cnnn2)c1)C(=O)N(C)c1ccccc1 (configuration not stated) -34.4%
O=C(NCCCn1ccnc1)/C(=C\c1ccc(Br)cc1)NC(=O)c1ccccc1 -48.1%
Cc1ccc(NC(=O)CN2CCC(C(=O)c3ccc(F)cc3)CC2)cc1 -37.1%
CCOC(=O)CN1C(=O)S/C(=C/c2cccc([N+](=O)[O-])c2O)C1=O -40.2%
Cc1cccc(N=C2NN=C(c3c(C)[nH]c4ccccc34)CS2)c1 -38.2%
COc1ccc(CC(=O)Nc2cc3oc4ccccc4c3cc2OC)cc1 -33.9%
C=CCOCCN(C)C1=NS(=O)(=O)c2cc([N+](=O)[O-])ccc21 -35.9%
O=C(Nc1ccc(F)c(Cl)c1)c1cc(C2CCCCN2C(=O)c2ccc(Cl)cc2)on1 (configuration not stated) -30.1%
Cc1nn2c(NCCOCCO)c3c(nc2c1-c1ccccc1)CCC3 -47.2%
CN(C)S(=O)(=O)c1ccc(Cl)c(NC(=O)COC(=O)c2ccc3c(c2)NC(=O)CS3)c1 -36.1%
O=C(N/N=C/c1ccccc1F)c1ccc(COc2ccccc2Cl)o1 -47%
CN(Cc1cc(Cl)cc(Cl)c1)[C@H]1C[C@H]2c3[nH]c4ccccc4c3CCN2C(=O)[C@H]1CO -39.6%
CC(C)(C)[C@H]1C=C(C(=O)N2CCN(Cc3ccccc3)CC2)O[C@@H](OCc2ccc(CO)cc2)C1 -48.1%
COC(=O)[C@@]12C[C@@H](CC(=O)NCc3ccccc3)C(=O)N(Cc3ccc4c(c3)OCO4)C1=CCC(C)(C)C2 -33.5%
CCn1cc(C(=O)Nc2ccc(C)cc2[N+](=O)[O-])c(C)n1 -41.8%
O=C(Nc1ccccc1)C1=C[C@H](c2ccc3c(c2)OCO3)C[C@H](OCc2ccc(CO)cc2)O1 -48.3%
CCOC(=O)C1=C(C)N(Cc2ccccc2)C(=O)NC1c1ccccc1OS(=O)(=O)c1ccccc1[N+](=O)[O-] (configuration not stated) -49.4%
Cc1cc(C)c(NC(=O)CSCc2c(C)noc2C)c(Cl)c1 -30.8%
CC(=O)Nc1ccc(S(=O)(=O)N(C)c2ccc(OCC(=O)NCCc3ccccc3F)cc2)cc1 -33.6%
COc1ccc(S(=O)(=O)N2CCC(C(=O)NCCC(=O)Nc3cccc(Cl)c3)CC2)cc1 -43.4%
O=S1(=O)CCC(NC(=S)SCCOc2ccccc2)C1 (configuration not stated) -42.7%
CC1(C)CC(=O)C2=C(C1)OC(N)=C([N+](=O)[O-])C2c1ccc(C#N)s1 (configuration not stated) -47%
Cc1ccc(CS(=O)(=O)Cc2ccc(C(=O)NCCCN3CC(C)CC(C)C3)o2)cc1 (configuration not stated) -31%
O=C(Nc1ccccc1)Nc1ccc(NC(=O)c2ccccc2O)cc1 -32.4%
O=C(/C=C/c1ccccc1O)c1ccc(Cl)cc1 -31.7%
CCOC(=O)c1ccc2[nH]c3c(c2c1)CN(C)CC3 -34.8%
O=C1[C@H]2[C@@H](c3ccc(C(F)(F)F)cc3)N[C@]3(CCCN(Cc4ccc(Cl)cc4)C3=O)[C@H]2C(=O)N1Cc1ccccc1 -36%
COc1cc(NC(=O)c2cccc([N+](=O)[O-])c2)ccc1NC(=O)c1ccco1 -49.6%
CN(C)CC(=O)Nc1ccc(Oc2ccc(Cl)cc2)cc1 -38.5%
CC(=O)Nc1ccc(S(=O)(=O)N2CCC(C(=O)c3ccc(F)cc3)CC2)cc1 -39.4%
